PMC7819943, “Rice protein-binding microarrays: a tool to detect cis-acting elements near promoter regions in rice”
Some of the results follow.

These sequences were tested against T1, OsWOX13 (Oryza sativa, UniProt Q5QMM3 1-267) (assay: protein-binding microarray (RPBM); PBS, 2% BSA, 51.3 ng/ul salmon testes DNA, 50 uM zinc acetate, 200 nM TF, 25 C, 1 h; high values mean tight binding). Conditions: protein: recombinant; tags: N-terminal polyhistidine and DsRed monomer fusion (pET32a); label: CyDye5-dUTP incorporated in the synthesized complementary strand; 3' TTTTT single-stranded linker to array surface; dsDNA, one strand shown.
T1 sequence: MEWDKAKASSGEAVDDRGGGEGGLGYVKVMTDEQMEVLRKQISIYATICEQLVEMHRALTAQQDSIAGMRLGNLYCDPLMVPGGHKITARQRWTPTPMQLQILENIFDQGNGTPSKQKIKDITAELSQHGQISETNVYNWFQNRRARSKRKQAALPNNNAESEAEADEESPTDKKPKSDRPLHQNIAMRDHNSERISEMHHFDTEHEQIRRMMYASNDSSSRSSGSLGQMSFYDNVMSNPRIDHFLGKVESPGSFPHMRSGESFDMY
How it was run: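 Transcription factors were each fused at the N-terminus to a polyhistidine tag plus DsRed and expressed in E. coli BL21-CodonPlus before Ni–NTA purification. Binding to a double-stranded custom Agilent array was carried out with 200 nM protein at 25 °C for 1 h in PBS, 2% BSA, salmon testes DNA and 50 µM zinc acetate. The binding signal is per-feature fluorescence intensity, in arbitrary units, on an Axon 4000B scanner.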

Row | Sequence | binding signal
1 | TTTAAAATAGTTAATACTCAATTAATCACACGCTAAGGGCCGGAGTCACCTAGTGCAG | 3460 fluorescence intensity (a.u.)
2 | GAATCATCAATAATGATTTGTAATGCTGAATGTTTCGCTTCGGAGTCACCTAGTGCAG | 15900 fluorescence intensity (a.u.)
3 | CGGAAATAAATTTCAGTTAGTGGTTTTGTAGAGGGCCCACCGGAGTCACCTAGTGCAG | 8680 fluorescence intensity (a.u.)
4 | GTTAATTTTGTGAAATATGTTTGCTGGTTAGTGAATTGTACGGAGTCACCTAGTGCAG | 12400 fluorescence intensity (a.u.)
5 | ACTAGATTGGATATTTAGTTATGCTGTGTGTTCACCAACACGGAGTCACCTAGTGCAG | 43000 fluorescence intensity (a.u.)
6 | ACTCTAATGAAGACAAACTTTATATCAAACTTGTAGCCCTCGGAGTCACCTAGTGCAG | 3760 fluorescence intensity (a.u.)
7 | TCTATATACGGTTTAAATTTAAATTATCATGAACCATGCTCGGAGTCACCTAGTGCAG | 4770 fluorescence intensity (a.u.)
8 | TTGTGATCAAAATCAGACAAATTTGCTTTTGGATAAGAATCGGAGTCACCTAGTGCAG | 6530 fluorescence intensity (a.u.)
9 | AGTTCATGATTAGCTATAAGTGTTACAGTAACCTAGATATCGGAGTCACCTAGTGCAG | 8250 fluorescence intensity (a.u.)
10 | CGTTGATAGCTACCTGGATCTGGAGGACAAGGCAGTGGTGCGGAGTCACCTAGTGCAG | 7930 fluorescence intensity (a.u.)
11 | GTTTGCTCTATGATTTTATAATTTAAAATTATATTATATACGGAGTCACCTAGTGCAG | 18000 fluorescence intensity (a.u.)
12 | ACAAAATAACAATCAAACACGCTTTGGTTTTACACATATACGGAGTCACCTAGTGCAG | 4520 fluorescence intensity (a.u.)
13 | GATCCACCAATTTAAATGAAAATTAATGGTGAGATGCTTTCGGAGTCACCTAGTGCAG | 8920 fluorescence intensity (a.u.)
14 | TTTGATTTCTTGGAAGAAACCACTTATTGTACCAATGTTCCGGAGTCACCTAGTGCAG | 8080 fluorescence intensity (a.u.)
15 | TGAGGTTGATATATACTCTGATTTATTTATTCGTACACATCGGAGTCACCTAGTGCAG | 3510 fluorescence intensity (a.u.)
16 | TTTATCCAATCAGAATGTCTCGAATACATTAGTTATGGTGCGGAGTCACCTAGTGCAG | 5350 fluorescence intensity (a.u.)
17 | TTGATGAGGTTAATTTCTTTACAAAACCTAGTAGTCAATTCGGAGTCACCTAGTGCAG | 8480 fluorescence intensity (a.u.)
18 | CTTTCTGATCATAATTAAATATATCATTCTCCTGCACGTGCGGAGTCACCTAGTGCAG | 15900 fluorescence intensity (a.u.)
19 | CTTAATTGAGAGAGAGAGAGAGAGAGAGAGAGAGAGAGATCGGAGTCACCTAGTGCAG | 4210 fluorescence intensity (a.u.)
20 | CGCTAATATAATGTTCTAAGTGGCTCCTTTGACAAGCAATCGGAGTCACCTAGTGCAG | 3800 fluorescence intensity (a.u.)
21 | CTCTTCAAAGATTGTCCTTTGACAGATTTGGGAGAGGGTCCGGAGTCACCTAGTGCAG | 3640 fluorescence intensity (a.u.)
22 | ACTAATTAAGAGTCTCGATCAATCCTTTTCAGTAAATTATCGGAGTCACCTAGTGCAG | 8920 fluorescence intensity (a.u.)
23 | TTTCCTAATTGTATTTCTATATGGACTCGTTTATTCCAAACGGAGTCACCTAGTGCAG | 13800 fluorescence intensity (a.u.)
